Data published in article PMC4336329 (PLoS ONE, 2015).
In all, about 310,000 compounds went through this assay and about 2,200 (0.71%) showed an effect of 50% or more. The effect is printed as a negative number. The list shows a part of the results.

The compounds below were run against human ether-à-go-go-related gene (hERG) potassium channel (human, UniProt Q12809) (assay: primary screen, population patch clamp on CHO cells stably expressing hERG).
Sequence of human ether-à-go-go-related gene (hERG) potassium channel (Q12809 whole entry, looked up): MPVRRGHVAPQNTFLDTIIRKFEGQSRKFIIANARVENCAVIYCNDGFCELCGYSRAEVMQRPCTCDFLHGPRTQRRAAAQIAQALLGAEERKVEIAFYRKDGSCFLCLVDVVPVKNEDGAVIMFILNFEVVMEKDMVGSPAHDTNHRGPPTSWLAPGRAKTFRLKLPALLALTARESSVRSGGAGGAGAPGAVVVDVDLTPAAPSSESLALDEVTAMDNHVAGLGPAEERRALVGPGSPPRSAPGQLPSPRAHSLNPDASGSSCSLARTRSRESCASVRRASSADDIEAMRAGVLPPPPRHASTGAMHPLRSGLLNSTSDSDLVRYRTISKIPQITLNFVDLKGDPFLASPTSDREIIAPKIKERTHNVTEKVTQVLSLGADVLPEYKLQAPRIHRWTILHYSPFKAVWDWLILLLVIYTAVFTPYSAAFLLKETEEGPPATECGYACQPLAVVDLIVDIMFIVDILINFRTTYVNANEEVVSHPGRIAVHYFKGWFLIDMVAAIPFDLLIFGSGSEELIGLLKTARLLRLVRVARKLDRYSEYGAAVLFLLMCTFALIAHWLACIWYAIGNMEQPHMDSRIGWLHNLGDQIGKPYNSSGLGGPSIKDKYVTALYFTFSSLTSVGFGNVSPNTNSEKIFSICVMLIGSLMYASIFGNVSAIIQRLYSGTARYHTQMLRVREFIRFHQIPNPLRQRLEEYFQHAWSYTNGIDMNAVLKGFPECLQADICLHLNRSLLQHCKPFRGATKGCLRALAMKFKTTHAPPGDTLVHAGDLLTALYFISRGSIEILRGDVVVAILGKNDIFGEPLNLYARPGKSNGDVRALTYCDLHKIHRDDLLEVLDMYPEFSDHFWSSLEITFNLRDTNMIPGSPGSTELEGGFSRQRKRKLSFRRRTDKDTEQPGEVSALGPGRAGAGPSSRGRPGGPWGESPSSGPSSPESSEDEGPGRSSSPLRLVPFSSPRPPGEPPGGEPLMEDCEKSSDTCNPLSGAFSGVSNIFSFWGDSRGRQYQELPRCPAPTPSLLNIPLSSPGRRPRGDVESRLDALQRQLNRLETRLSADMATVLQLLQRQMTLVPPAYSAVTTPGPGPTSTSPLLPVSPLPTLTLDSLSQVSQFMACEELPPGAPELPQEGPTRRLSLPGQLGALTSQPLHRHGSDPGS

Row | Compound | hERG current change (%, negative = inhibition) at 1uM
1 | COc1cc(C(=O)Nc2ccc3nc4n(c(=O)c3c2)CCCCC4)cc(OC)c1OC | -1.94%
2 | NC(=O)c1nsc(C(=O)N(Cc2ccc(F)cc2)C(C(=O)NC2CCCC2)c2ccco2)c1N (stereo not drawn) | -3.79%
3 | COc1ccc(NC(=O)Nc2cccc3cccnc23)cc1 | 8.71%
4 | CCN1CCN(C(=O)Nc2ccc(OC)cc2OC)CC1 | 3.01%
5 | COc1ccc([N+](=O)[O-])cc1Nc1c2ccccc2nc2ccccc12 | 14.9%
6 | CCOc1ccc(C2C(C(=O)OC)=CN(C(C)c3ccccc3)C=C2C(=O)OC)cc1 (stereo not drawn) | 8.81%
7 | CCN1CCN(C(c2cccs2)C(C)NS(=O)(=O)c2ccccc2)CC1 (stereo not drawn) | 12.8%
8 | CCSCc1nnc(SCC(=O)Nc2nc(C)cs2)n1C | -0.624%
9 | CN(C(=O)COC(=O)Cn1cnc2c1c(=O)n(C)c(=O)n2C)C1(C#N)CCCCC1 | 12%
10 | O=C(O)COCC(=O)Nc1ccc(Oc2ncnc3cc(Cl)ccc23)nc1 | 14.5%
11 | COC(=O)c1cccc(C23CC4(C2)[C@H](CN(Cc2ccc(-c5ccccc5)cc2)[C@@H]4c2ccccc2)C3c2ccc(Cl)nc2)c1 (stereo partly drawn) | -4.71%
12 | O=S(=O)(Nc1ccc(Cc2ccncc2)cc1)c1ccc(Cl)c(Cl)c1 | -9.03%
13 | CCC(=O)N1C(C(=O)NCc2ccc(OC)cc2)CSC1c1ccc(OC)cc1 (stereo not drawn) | 3.53%
14 | CC1CCC2C(C1)OS(=O)(=O)NC2(C)C (stereo not drawn) | 17.6%
15 | CN(C)c1ccc(C(=O)NCc2ccc3c(c2)OCO3)cc1 | 13.1%
16 | Cc1ccc(/C=C2/NC(=O)[C@H](C)NC2=O)cc1 | 10.1%
17 | O=C1NC2=C(C(=O)CCC2)C(c2ccc3ncccc3c2)N1 (stereo not drawn) | -0.497%
18 | COc1ccc(S(=O)(=O)N2CCN(C(=O)N3CCOCC3)C2C)cc1 (stereo not drawn) | 11.2%
19 | Cl.O.O=C1CC(=C2c3ccccc3-c3ccccc32)C(=O)N1CCCCN1CCN(c2ccccc2)CC1 | 3.34%

Row | Compound | hERG current change (%, negative = inhibition) at 1uM
20 | Cc1ccc(N2CC(C(=O)NCCc3ccc(S(N)(=O)=O)cc3)CC2=O)cc1 (stereo not drawn) | 16.1%
21 | Cc1cc(C)c(NC(=O)/C(=C/c2ccccc2)c2ccccc2)c(C)c1 | 9.35%
22 | CCN(CC)S(=O)(=O)c1ccc(C(=O)Nc2ccc3c(c2)OCO3)cc1 | 6.7%
23 | Cc1ccc(S(=O)(=O)N(C)c2ccc(OCC(=O)NC3=NCCS3)cc2)cc1 | 4.66%
24 | O=C1CC(C(=O)Nc2ccccc2C(=O)O)C(c2ccccc2)O1 (stereo not drawn) | 6.56%
25 | COc1cc(CNCCCN2CCOCC2)cc(Br)c1OCC(=O)N1CCCCC1.Cl | 11.5%
26 | O=C1CCC(C(=O)Nc2ccccc2N2CCOCC2)=NN1 | 14.9%
27 | CC1(C)Cc2c(C#N)c(SCc3nc4ccccc4[nH]3)nc(N3CCOCC3)c2CO1 | 11.2%
28 | Nc1c(C(=O)NCc2ccco2)nnn1Cc1ccccc1 | 17.2%
29 | CCC(C)(C)NC(=O)Cc1ccc(F)cc1 | 23.4%
30 | COc1ccc(S(=O)(=O)NCc2ccncc2)cc1OC | -0.893%
31 | Cc1ccsc1C(=O)OCC(=O)c1cc(C)n(CC2CCCO2)c1C (stereo not drawn) | 8.76%
32 | CCn1c(-c2cc(C3CC3)nc3ccccc23)n[nH]c1=S | 15.8%
33 | CCCCn1nc(NC(=O)c2cccs2)c2cc3cc(OC)ccc3nc21 | 9.6%
34 | CCOC(=O)CSc1nnc(NC(=O)CN2CCCCC2)s1 | 11.9%
35 | CCCc1cc(=O)[nH]c(SCC(=O)N2CCCC2=O)n1 | 15.4%
36 | Cn1c(=O)c2c(nc(N3CCOCC3)n2C)n(C)c1=O | -1.83%
37 | COc1ccc(C(CC(=O)N2CCCCC2)c2c(O)cc(OC)cc2OC)cc1 (stereo not drawn) | 13.5%
38 | CC1=CC(C)(C)n2c(O)c(N=N)c3cc(C)cc1c32 | 6.62%

Row | Compound | hERG current change (%, negative = inhibition) at 1uM
39 | CCN(CC(=O)NCc1cccs1)C(=O)CN(C)S(=O)(=O)c1ccc(C)cc1 | 5.94%
40 | COc1ccc2oc(C(=O)OCC(=O)N3CCN(S(=O)(=O)c4ccc(C)cc4)CC3)c(C)c2c1 | 16.1%
41 | O=C(Cn1nc2sc3ccccc3n2c(=O)c1=O)c1ccc(Cl)cc1 | 16.3%
42 | Cc1cc(C(=O)OCC(=O)N2CCC(c3ccccc3)=N2)ccc1[N+](=O)[O-] | 11.2%
43 | COc1ccc(CCNC(=O)[C@@H]2C[C@H]2c2ccccc2)cc1OC | 5.21%
44 | O=C1C=C(c2ccc3ccccc3c2)C[C@@H](c2ccc(Cl)cc2)C1 | 10%
45 | CCOC(=O)Cn1c(=NC(=O)CSC(C)=O)sc2ccccc21 | -14%
46 | Cn1cccc1C(=O)OCc1ccc(C(C)(C)C)cc1 | 6.82%
47 | O=C(Cc1ccccc1)NCCc1cn2ccsc2n1 | 20.5%
48 | CC(C)Cc1nnc(NC(=O)CCC(=O)N2CCN(Cc3ccc(F)cc3)CC2)s1 | 10%
49 | O=C(COc1ccccc1Cl)NC(=S)Nc1ccc(CN2CCOCC2)cc1 | 15.7%
50 | COc1ccc(NC(=O)NC(C(F)(F)F)C(F)(F)F)cc1 | 16.6%
51 | CCn1c(SCC(=O)OC)nc2sc3c(c2c1=O)CCC3 | -0.13%
52 | CN1CCN(CCCc2c3c(cc4c2CCC4)CCC3)CC1.Cl | 7.12%
53 | COc1cccc(C(=O)N2CCN(C(=O)C3CCCO3)CC2)c1 (stereo not drawn) | 17.1%
54 | NC(=O)Cn1cnc2c(nnn2-c2ccc(F)cc2)c1=O | 5.43%
55 | CCN(c1ccccc1)S(=O)(=O)c1ccc(F)cc1C | -0.512%
56 | COc1ccc(/C=N/NC(=O)c2ccncc2)cc1Cn1nc([N+](=O)[O-])c(Br)c1C | 9.33%
57 | CN1CCN(/N=C/c2ccc(Br)cc2)CC1.Cl | 0.327%
